# Data published in the RNAGym collection of RNA variant scans (doi:10.1073/pnas.2313332121).
# Variants at the floor of the assay are shown more often than the library holds them.
# B1: TPR 5TU (parent)
# chain: GGAUCUUCUCGAUCUAACAAAAAAGACAAAUCUGCCACAAAGCUUGAGAGCAUCUUCGGAUGCAGAGGCGGCAGCCUUCGGUGGCGCGAUAGCGCCAACGUUCUCAACUAUGACACGCAAAACGCGUGCUCCGUUGAAUGGAGUUUAUCAUG
# Variants of: B1
# Test: polymerase ribozyme fitness, log enrichment relative to wild type (log ratio); higher = more active; in vitro selection for triplet polymerase activity
# Procedure, shortened: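 After PCR construction and transcription, each subunit's mutant library from a heterodimeric triplet polymerase ribozyme was annealed with a biotinylated primer, the partner subunit and triplets. Incubation was frozen, at −7 °C, and extended constructs were gel-excised, bound to streptavidin beads and amplified by RT-PCR, in one selection round done in triplicate. Fitness is the logarithm of a genotype's enrichment divided by that of the wild type, from inverse-variance-weighted replicate averages of Illumina-sequenced inputs and outputs. The base of the logarithm is 2, and genotypes needed ≥10 input reads and ≥1 read per output.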
row,Variant,polymerase ribozyme fitness (log ratio)
1,C14A A20U A39C C95U C149U,≤ -4.2
2,C14A A20U C51U G86A U90G A98G A121G U127G,≤ -4.2
3,C14A A22G A30G U31A A52U G83A U151C,≤ -4.2
4,C14A A22G G50C U55A C93A A107C G140C,≤ -4.2
5,C14A A24U U56A C72A G80U,≤ -4.2
6,C14A A26U A29G C57G C93A G141C,≤ -4.2
7,C14A A28U G46C U61A C95U U139C A150C,≤ -4.2
8,C14A A29U C96A U101G G133C U144C,≤ -4.2
9,C14A A30U A40U U144C C149A,≤ -4.2
10,C14A A30U C93U U102A,≤ -4.2
11,C14A A37U C75G G94A A113G C114G C149A,≤ -4.2
12,C14A A39C C54U U102G G143U,≤ -4.2
13,C14A A47C G81C G86A C96A C149U,≤ -4.2
14,C14A A49C,≤ -4.2
15,C14A A49C C57A G83A C105A,≤ -4.2
16,C14A A49G G92C A107G G136U A142U,≤ -4.2
17,C14A A52C A91U U101A,≤ -4.2
18,C14A A66U G68A C72G G92U,≤ -4.2
19,C14A A150G,-2.78
20,C14A C18U C27U C38G U61C G83A C96A A138G,≤ -4.2
21,C14A C27G C32G U77C G84A,≤ -4.2
22,C14A C27G C54U A73U G84U C114A,≤ -4.2
23,C14A C27U A52C C85U C129A,≤ -4.2
24,C14A C35A A49C G70C A97G A98C G117U A138G,≤ -4.2

row,Variant,polymerase ribozyme fitness (log ratio)
1,C14A C35A C63U U102G,≤ -4.2
2,C14A C35G A39U C96A A119C,≤ -4.2
3,C14A C43U A47U C76U G86C U102C U109G,≤ -4.2
4,C14A C69A G71C C79U G83C U90C,≤ -4.2
5,C14A C75A C76U C85U,≤ -4.2
6,C14A C85U C96G U146G A150G,≤ -4.2
7,C14A C93U,-2.33
8,C14A C125A,-1.75
9,C14A G42C A60G G86U C99G,≤ -4.2
10,C14A G50U C69G U134A A147C,≤ -4.2
11,C14A G58A A89U G94U,-3.75
12,C14A G83A,-0.809
13,C14A G83A G92A U102C,≤ -4.2
14,C14A U15G A16U A40C A52C G88U G92A A97G,≤ -4.2
15,C14A U15G C93A C116G U135G,≤ -4.2
16,C14A U53A C96A A98C A120U G141A,-3.99
17,C14A U90G A137C,≤ -4.2
18,C14A U102G,≤ -4.2
19,C14G A16C C57U G94U A137U U144A,≤ -4.2
20,C14G A16U A20U A24U A30U,≤ -4.2
21,C14G A17C U78G,≤ -4.2
22,C14G A17U A22U G65U U90A,≤ -4.2
23,C14G A17U C43U U61G G88U,≤ -4.2
24,C14G A19C A20C G25A U82G A91U,≤ -4.2

row,Variant,polymerase ribozyme fitness (log ratio)
1,C14G A19G G46A C72G G84U,≤ -4.2
2,C14G A19U G34U C87G G100A A142C,≤ -4.2
3,C14G A20G A39G G67A A97G,≤ -4.2
4,C14G A20G C75A C96G G141C,≤ -4.2
5,C14G A20U A29C A40G G59U C85G A122U U148A,≤ -4.2
6,C14G A20U A40C G42C C93G,≤ -4.2
7,C14G A21C C43U A49C C51A A91U C93A A147C,≤ -4.2
8,C14G A21C G81U G83U U111A G140A U146G,≤ -4.2
9,C14G A21U A30U U31C,≤ -4.2
10,C14G A21U A60U C75A U77G A89U C95A,≤ -4.2
11,C14G A22C C57U A66U U90C A91U U148G,≤ -4.2
12,C14G A22C C87U C105G U130G,≤ -4.2
13,C14G A23C C32U C96U,-4.1
14,C14G A23G A28G G140A U144G,≤ -4.2
15,C14G A23U A28U G50C C54A A66G C76U U82C C93U,≤ -4.2
16,C14G A23U U61A A119U G136A,≤ -4.2
17,C14G A24U A28U C43U A73G U82C C103G G136A U146C,≤ -4.2
18,C14G A26G U53C U77G G86U U111C C114A A137G,≤ -4.2
19,C14G A26U A30U C75A C93U G141A U148G U151G,≤ -4.2
20,C14G A26U A40C G68C G94A A142G,≤ -4.2
21,C14G A28U U55G G86U,≤ -4.2
22,C14G A29G C54U C132G,≤ -4.2
23,C14G A29U A60G A64G C85U U145G,≤ -4.2
24,C14G A30G G46C C95U,-4.17

row,Variant,polymerase ribozyme fitness (log ratio)
1,C14G A30U C36U A39C C93A A147C,≤ -4.2
2,C14G A37C G70A A106G G126U,≤ -4.2
3,C14G A37U C63U C105G,≤ -4.2
4,C14G A39U,≤ -4.2
5,C14G A40C G80C C96U,≤ -4.2
6,C14G A40G A41C C54U C85G C99U,≤ -4.2
7,C14G A41C A52G C79G A137C U144C,≤ -4.2
8,C14G A41G C43U C51G U55G C85U A115U U139A U144C,≤ -4.2
9,C14G A47U A52G G117U G126U,≤ -4.2
10,C14G A49C C51A C54U G59A G92A C95U A113U U134C A137U,≤ -4.2
11,C14G A49G C54A G88A,≤ -4.2
12,C14G A52C U55A C131G,≤ -4.2
13,C14G A52G C75U C85U U144C,-3.71
14,C14G A52U A91C C125U,≤ -4.2
15,C14G A73G C79G A98G G143C,≤ -4.2
16,C14G C18G U31G A49U U56A A91U G100A U127C C132A U144G,≤ -4.2
17,C14G C18G U82G G84C,≤ -4.2
18,C14G C18U,-1.18
19,C14G C27G G67A G92A A107G,≤ -4.2
20,C14G C32G C35A G84C C123A,≤ -4.2
21,C14G C32G G141U A147C,≤ -4.2
22,C14G C32G U82G G92U,≤ -4.2
23,C14G C32U G48A C103U U127C,≤ -4.2
24,C14G C35A C38U A60C G74U A110U,≤ -4.2

row,Variant,polymerase ribozyme fitness (log ratio)
1,C14G C35G G83C G128C G133A,≤ -4.2
2,C14G C35U C54A G67C C95U G128A G141C,≤ -4.2
3,C14G C38U U53A U82C C95G,≤ -4.2
4,C14G C43A G88U A110U G112C U127G,≤ -4.2
5,C14G C51U C96U,-3.1
6,C14G C54G U56G G83C C87G U90G U101G C118A A119U U130A,≤ -4.2
7,C14G C54U C76G U82C G86A A107C G136U,≤ -4.2
8,C14G C69A,≤ -4.2
9,C14G C69G C96A G124A,-3.69
10,C14G C75A U82G C118A,≤ -4.2
11,C14G C75U C96A C103G A142C,≤ -4.2
12,C14G C76G A89C C93G C95G U127G U151G,≤ -4.2
13,C14G C76U G88U C93G C96A G112A G124A G133A,≤ -4.2
14,C14G C85A C116U A122C,≤ -4.2
15,C14G C85G C131A,≤ -4.2
16,C14G C87A,≤ -4.2
17,C14G C87A A107U,≤ -4.2
18,C14G C93A,-3.68
19,C14G C93G,≤ -4.2
20,C14G C93G A107C A150U,≤ -4.2
21,C14G C93G C131U U148G,≤ -4.2
22,C14G C93U C108G C116A,≤ -4.2
23,C14G C95U,-1.57
24,C14G G25U G50A C51U U145A,≤ -4.2

row,Variant,polymerase ribozyme fitness (log ratio)
1,C14G G42A G81A A89C G133U,≤ -4.2
2,C14G G42C C54A C87U C99U U134C,≤ -4.2
3,C14G G42C G83A U144C U148C,≤ -4.2
4,C14G G58U A64G C85U,≤ -4.2
5,C14G G83A U90G G92U U102G C105A C118U A120C U146G,≤ -4.2
6,C14G G88C A137U,≤ -4.2
7,C14G G133U,≤ -4.2
8,C14G U15C C43G C93U A106C C108A G126A A137G C149U,≤ -4.2
9,C14G U31A G68A G86A A91G C108A C118G,≤ -4.2
10,C14G U31A G136A,-2.23
11,C14G U33G U56A C57U C63A C87U,≤ -4.2
12,C14G U44A A60G G74U G84A A97U C132A,≤ -4.2
13,C14G U45A A49C C96U A150G,≤ -4.2
14,C14G U45A G86U A89G,≤ -4.2
15,C14G U45C G88A,≤ -4.2
16,C14G U53A C85G U90A A91U C99A C118A A120U,≤ -4.2
17,C14G U53C C75U G94U G143A,≤ -4.2
18,C14G U53G C69U,≤ -4.2
19,C14G U55A U61C G94U,≤ -4.2
20,C14G U55C C93G C96A U104G,≤ -4.2
21,C14G U55G G65U G84U C85U G86A A121U,≤ -4.2
22,C14G U56A C85G G92A,≤ -4.2
23,C14G U56A G62C,≤ -4.2
24,C14G U61C G74U A91C C95U C118U G140A A142G,≤ -4.2

row,Variant,polymerase ribozyme fitness (log ratio)
1,C14U A16C A26U G65U G92C,≤ -4.2
2,C14U A16C C57G G83U C85U A107G G140C A142C,≤ -4.2
3,C14U A16C C85U C87G U111G,≤ -4.2
4,C14U A16U C36A U82A C85A C103A U134G G136A,≤ -4.2
5,C14U A17G A28U G83C,≤ -4.2
6,C14U A17U C93G,≤ -4.2
7,C14U A19C A41C U53A G68U G88C C99G G126C,≤ -4.2
8,C14U A19C A41U C63G C93G C103A,≤ -4.2
9,C14U A19C C36U C75U U90A U134G,≤ -4.2
10,C14U A19U C87U C99A,-3.91
11,C14U A19U U55A,-1.9
12,C14U A20C C51G G70C A91U G100A G140C,≤ -4.2
13,C14U A20U C36G G88A G92A U148C,≤ -4.2
14,C14U A20U G65A G70A U145C,≤ -4.2
15,C14U A21C C72U C96U C105G C116U G143C,≤ -4.2
16,C14U A21G A49G,-2.56
17,C14U A21U A24U U44A C57U C93G A113C U135G G136A,≤ -4.2
18,C14U A21U A29U C35U A41G C76U C96U C149U,≤ -4.2
19,C14U A22G C32U C54U U82G G84U C99A,≤ -4.2
20,C14U A22U A60C G81U C95G C96U G128C,≤ -4.2
21,C14U A23U A47U C85U U101G U109G U148G,≤ -4.2
22,C14U A24C C38U,≤ -4.2
23,C14U A24U C35A A73G A91U A97U G136C G143A,≤ -4.2
